Measured values as given in the supplement of paper PMC9446081.
Hit rate of the full screen: of about 39,000 compounds, about 220 (0.56%) showed activity. Some of the results follow.

tested on: Escherichia coli K-12 BW25113; assay: relative growth (OD600 normalised to plate interquartile mean) (fraction); higher = less growth inhibition, active = 0.2 or less; details: 50 µM; LB; incubation time: overnight (16-24 h)
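Note: static incubation at 37 °C against the wild-type strain, values averaged over two biological replicates.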

| Structure (SMILES) | relative growth |
| --- | --- |
| C[C@@H]1CCCCO[C@@H](CN(C)S(C)(=O)=O)[C@@H](C)CN([C@@H](C)CO)C(=O)c2cc(NS(=O)(=O)c3ccccc3)ccc2O1 | inactive: 1.03 |
| Cc1noc(C)c1NC(=O)N(C)C[C@@H]1Oc2ccc(NS(=O)(=O)c3cn(C)cn3)cc2C(=O)N([C@H](C)CO)C[C@@H]1C | inactive: 0.815 |
| O=C(c1cccc2ccccc12)N(C1CCCC1)C1CCCC1 | inactive: 1.04 |
| C[C@H]1CN([C@@H](C)CO)C(=O)c2cc(C#CCN(C)C)cnc2O[C@@H]1CN(C)Cc1ccc2c(c1)OCO2 | inactive: 1.01 |
| Cc1noc(C)c1NC(=O)Nc1cccc2c1O[C@H](CN(C)S(=O)(=O)c1cn(C)cn1)[C@@H](C)CN([C@@H](C)CO)C2=O | inactive: 1.01 |
| COCCNC(=O)C[C@H]1CC[C@H]2[C@H](COc3ccc(NS(=O)(=O)c4ccc(Cl)cc4)cc3C(=O)N2C)O1 | inactive: 1.02 |
| C[C@@H]1CN([C@@H](C)CO)C(=O)CCCn2cc(nn2)CO[C@H]1CN(C)S(=O)(=O)c1ccc(Oc2ccccc2)cc1 | inactive: 0.998 |
| Clc1ccc(-c2nnc(Nc3ccccc3)s2)c(Cl)c1 | inactive: 1.07 |
| COCC#Cc1cnc2c(c1)C(=O)N([C@H](C)CO)C[C@@H](C)[C@H](CN(C)S(=O)(=O)c1cccc(OC)c1)O2 | inactive: 0.992 |
| Cc1noc(C)c1NC(=O)Nc1ccc2c(c1)C(=O)N([C@H](C)CO)C[C@H](C)[C@H](CN(C)Cc1ccccc1)OCCCC[C@H](C)O2 | inactive: 0.966 |
| C[C@@H]1CN([C@H](C)CO)C(=O)c2cc(NC(=O)Nc3ccccc3)ccc2O[C@@H](C)CCCCO[C@H]1CN(C)C(=O)C1CCCCC1 | inactive: 1.02 |
| O=C(N[C@H]1CC[C@H](CCNS(=O)(=O)c2ccccc2)O[C@H]1CO)c1cnccn1 | inactive: 1 |
| C=CC[C@H](CC(=O)NCCO)C(=O)N[C@H](COC(=O)[C@H](CC=C)CC(=O)OC(C)(C)C)c1ccccc1 | inactive: 0.996 |
| O=C(NCCN1CCOCC1)[C@@]1(Cc2ccccc2)N=C(c2ccc(OCCCO)cc2)O[C@H]1c1ccccc1 | inactive: 1.01 |
| C[C@@H]1CN([C@@H](C)CO)C(=O)Cc2cc(NS(C)(=O)=O)ccc2O[C@@H]1CN(C)S(=O)(=O)c1ccccc1 | inactive: 0.993 |
| C[C@@H]1CN([C@H](C)CO)C(=O)c2cc(NC(=O)CCCN(C)C)ccc2O[C@@H]1CN(C)C(=O)NC1CCCCC1 | inactive: 1.02 |
| C[C@@H]1CCCCO[C@H](CN(C)C(=O)Nc2ccc3c(c2)OCO3)[C@@H](C)CN([C@H](C)CO)C(=O)c2cc(NC(=O)Nc3ccc(F)cc3)ccc2O1 | inactive: 0.928 |
| C[C@H]1CN([C@@H](C)CO)C(=O)c2cc(NS(=O)(=O)c3ccccc3)ccc2O[C@@H]1CN(C)S(=O)(=O)c1ccccc1 | inactive: 1.02 |
| C[C@H](CO)N1C[C@H](C)[C@H](CN(C)C(=O)CCCN(C)C)OCCCC[C@H](C)Oc2ccc(NS(=O)(=O)c3cn(C)cn3)cc2C1=O | inactive: 0.988 |
| CN1C[C@H](C(N)=O)CC1=O | inactive: 0.99 |
| C[C@@H]1CN([C@@H](C)CO)C(=O)c2cc(NC(=O)Nc3ccccc3)ccc2O[C@@H](C)CCCCO[C@@H]1CN(C)C(=O)c1ccccc1 | inactive: 0.979 |

| Structure (SMILES) | relative growth |
| --- | --- |
| C[C@H](CO)N1C[C@H](C)[C@@H](CN(C)C(=O)CCC(F)(F)F)OCCCC[C@H](C)Oc2ccc(NC(=O)c3ccccc3)cc2C1=O | inactive: 1.02 |
| C[C@@H]1CN([C@@H](C)CO)S(=O)(=O)c2ccc(C#CC3(O)CCCC3)cc2O[C@@H]1CN(C)C(=O)Nc1cccc(F)c1 | inactive: 1.04 |
| COc1ccc2c3c(n(c2c1)C)[C@@H](CO)N(Cc1ccccc1Cl)C[C@]13CCN(CC1)C(=O)CC1CC1 | inactive: 1.02 |
| NC(=O)c1nc2c(s1)CCNCC2 | inactive: 1.02 |
| C[C@@H]1CN([C@@H](C)CO)C(=O)c2cc(NC(=O)c3ccncc3)ccc2O[C@@H]1CN(C)Cc1ccc(Oc2ccccc2)cc1 | inactive: 1.01 |
| C[C@@H]1CCCCO[C@@H](CN(C)C(=O)Nc2ccc3c(c2)OCO3)[C@@H](C)CN([C@H](C)CO)C(=O)c2cc(NS(=O)(=O)c3ccc(Cl)cc3)ccc2O1 | inactive: 1.04 |
| N=C(N)N | inactive: 1.01 |
| O=C(O)c1cccc(C(=O)O)n1 | inactive: 0.891 |
| COc1ccc(CN(C)C[C@@H]2Oc3c(NC(=O)Nc4ccc(C(F)(F)F)cc4)cccc3C(=O)N([C@H](C)CO)C[C@H]2C)cc1 | inactive: 0.873 |
| C[C@@H]1CCCCO[C@@H](CN(C)S(=O)(=O)c2ccc(F)cc2)[C@@H](C)CN([C@@H](C)CO)C(=O)c2cc(NC(=O)Nc3ccc(F)cc3)ccc2O1 | inactive: 1.05 |
| C[C@H]1CCCCO[C@@H](CN(C)C(=O)Nc2ccc(F)cc2)[C@@H](C)CN([C@@H](C)CO)C(=O)c2cc(NS(=O)(=O)c3ccc(F)cc3)ccc2O1 | inactive: 1 |
| Cc1noc(C)c1S(=O)(=O)Nc1ccc2c(c1)C(=O)N([C@@H](C)CO)C[C@@H](C)[C@H](CN(C)C(=O)Nc1ccccc1)OCCCC[C@@H](C)O2 | inactive: 1 |
| CO[C@@H]1CN(C)C(=O)c2cc(NS(=O)(=O)c3ccccc3)ccc2OC[C@@H](C)N(C(=O)NC(C)C)C[C@H]1C | inactive: 1.01 |
| Cc1cnc(N2C[C@H]3COC[C@@H]3C2)nc1 | inactive: 0.977 |
| Cl.O=C(c1ccc(OCCN2CCCCC2)cc1)c1c(-c2ccc(O)cc2)sc2cc(O)ccc12 | inactive: 1.09 |
| Cc1ccc(S(=O)(=O)Nc2ccc3c(c2)C(=O)N([C@H](C)CO)C[C@H](C)[C@H](CN(C)Cc2ccc(Cl)c(Cl)c2)OCCCC[C@@H](C)O3)cc1 | inactive: 1.06 |
| OC[C@@]1(O)CO[C@@H](OC[C@H]2O[C@@H](OCCc3ccc(O)cc3)[C@H](O)[C@@H](O)[C@@H]2O)[C@@H]1O | inactive: 0.985 |
| COc1[nH]sc(=NN)c1C#N | inactive: 0.98 |
| C[C@H]1CCCCO[C@H](CN(C)C(=O)Nc2ccc(C(F)(F)F)cc2)[C@@H](C)CN([C@@H](C)CO)C(=O)c2cc(N(C)C)ccc2O1 | inactive: 0.976 |
| COc1ccc(S(=O)(=O)Nc2ccc3c(c2)C(=O)N([C@H](C)CO)C[C@H](C)[C@@H](CN(C)C(=O)Nc2cccc4ccccc24)OCCCC[C@@H](C)O3)cc1 | inactive: 0.998 |
| C[C@H]1CN([C@@H](C)CO)S(=O)(=O)c2ccc(C3=CCCCC3)cc2O[C@H]1CN(C)Cc1cncnc1 | inactive: 1.02 |

| Structure (SMILES) | relative growth |
| --- | --- |
| COc1ccc(NC(=O)Nc2ccc3c(c2)C(=O)N([C@@H](C)CO)C[C@@H](C)[C@H](CN(C)S(=O)(=O)c2ccccc2)OCCCC[C@@H](C)O3)cc1 | inactive: 1.03 |
| COc1ccc(S(=O)(=O)N(C)C[C@@H]2Oc3ccc(N(C)C)cc3C(=O)N([C@H](C)CO)C[C@H]2C)cc1 | inactive: 1.01 |
| C[C@H](CO)N1C[C@H](C)[C@H](CN(C)Cc2ccccc2)Oc2c(NS(=O)(=O)c3cn(C)cn3)cccc2C1=O | inactive: 0.989 |
| CC1=C(C(=O)OCCN(Cc2ccccc2)c2ccccc2)[C@@H](c2cccc([N+](=O)[O-])c2)C(P2(=O)OCC(C)(C)CO2)=C(C)N1.CCO.Cl | inactive: 1.05 |
| C[C@H](CO)N1C[C@H](C)[C@H](CN(C)Cc2ccncc2)Oc2ccc(NC(=O)c3ccncc3)cc2C1=O | inactive: 1.01 |
| CS(=O)(=O)Nc1cccc(C2=NN(c3nc(-c4ccccc4)c4cc(Cl)ccc4n3)[C@H](c3ccco3)C2)c1 | inactive: 1 |
| Cc1ccc(S(=O)(=O)Nc2ccc3c(c2)C(=O)N([C@@H](C)CO)C[C@H](C)[C@H](CN(C)Cc2ccc(Oc4ccccc4)cc2)O3)cc1 | inactive: 0.976 |
| C[C@@H]1CN([C@H](C)CO)C(=O)Cc2cc(NS(=O)(=O)c3cn(C)cn3)ccc2O[C@H]1CN(C)S(=O)(=O)c1ccc(Cl)cc1 | inactive: 1.03 |
| C[C@@H]1CCCCO[C@H](CN(C)S(=O)(=O)c2ccccc2)[C@H](C)CN([C@@H](C)CO)C(=O)c2cc(NC(=O)Nc3ccc(C(F)(F)F)cc3)ccc2O1 | inactive: 1 |
| COc1ccc(C#Cc2ccc([C@H]3[C@@H](CO)N4CCCCN(S(=O)(=O)c5cn(C)cn5)C[C@@H]34)cc2)cc1 | inactive: 0.967 |
| C=C[C@@H]1[C@@H](O[C@@H]2O[C@H](CO)[C@@H](O)[C@H](O)[C@@H]2O)OC=C(C(=O)O)[C@H]1CC(=O)O | inactive: 0.984 |
| C[C@H](CO)N1C[C@H](C)[C@H](CN(C)S(=O)(=O)c2ccc(Cl)cc2)Oc2c(NS(C)(=O)=O)cccc2C1=O | inactive: 0.859 |
| NC(=O)CSCC(=O)Nc1ccccc1F | inactive: 1.02 |
| Cc1noc(C)c1S(=O)(=O)Nc1ccc2c(c1)CC(=O)N([C@H](C)CO)C[C@H](C)[C@@H](CN(C)C(=O)NC1CCCCC1)O2 | inactive: 0.995 |
| C[C@H]1CN([C@@H](C)CO)C(=O)c2cc(NC(=O)CCCN(C)C)ccc2O[C@@H]1CN(C)Cc1ccncc1 | inactive: 0.987 |
| CN(C)CCCNC(=O)C[C@@H]1CC[C@H]2[C@@H](COC[C@H](O)CN2S(=O)(=O)c2ccc(F)cc2)O1 | inactive: 1.01 |
| Cc1cc(NS(=O)(=O)c2ccc(N)cc2)no1 | inactive: 0.972 |
| Cc1ccc(-c2nc(Nc3cccc(Cl)c3)sc2C)cc1 | inactive: 0.972 |
| Cc1ccc(S(=O)(=O)Nc2ccc3c(c2)C(=O)N([C@H](C)CO)C[C@@H](C)[C@H](CN(C)Cc2ccc(Cl)c(Cl)c2)O3)cc1 | inactive: 1.02 |
